The supplement of paper PMC10441789
The other results are listed elsewhere or left out. Antibody binding of pooled human sera (four to six donors per pool; dilution not stated) to peptides of the Trypanosoma cruzi antigen TSSA on microarrays. Quantile-normalised fluorescence in arbitrary units, mean of duplicate arrays; higher = more binding. No active / inactive call. The uninfected pools are read here as the healthy donors of the same country. The strongest signals lie near the top of the scale (about 60,000).

Legend:
Experiment in all cases: antibody binding signal (normalised fluorescence) (arbitrary fluorescence units); higher = stronger serum antibody binding to peptide
[1] = test system: pooled sera of chronic Chagas disease patients, Argentina
Description: (§1)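 Microarray of 15-residue peptides over residues 30-55 of Trypanosoma cruzi TSSAII, each with 1 to 10 substitutions at naturally variable positions, probed with one serum pool per country.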

[2] = test system: pooled sera of chronic Chagas disease patients, Bolivia
Description: as §1

[3] = test system: pooled sera of chronic Chagas disease patients, Brazil
Description: as §1

[4] = test system: pooled sera of chronic Chagas disease patients, Colombia
Description: as §1

[5] = test system: pooled sera of chronic Chagas disease patients, Mexico
Description: as §1

[6] = test system: pooled sera of chronic Chagas disease patients, USA
Description: as §1

[7] = test system: pooled sera of uninfected people, Argentina
Description: as §1

[8] = test system: pooled sera of uninfected people, Bolivia
Description: as §1

[9] = test system: pooled sera of uninfected people, Brazil
Description: as §1

[10] = test system: pooled sera of uninfected people, Mexico
Description: as §1

[11] = test system: pooled sera of uninfected people, USA
Description: as §1

| Sequence | antibody binding signal [1] | antibody binding signal [2] | antibody binding signal [3] | antibody binding signal [4] | antibody binding signal [5] | antibody binding signal [6] | antibody binding signal [7] | antibody binding signal [8] | antibody binding signal [9] | antibody binding signal [10] | antibody binding signal [11] |
| --- | --- | --- | --- | --- | --- | --- | --- | --- | --- | --- | --- |
| PPSGTEKKPATGGTP | 34300 | 1920 | 31500 | 945 | 5550 | 5920 | 1320 | 876 | 864 | 236 | 741 |
| KDNKAAAGGTPSPPG | 305 | 209 | 146 | 901 | 125 | 740 | 172 | 1580 | 407 | 86.3 | 92.5 |
| GKENKPAAGETPSPP | 5820 | 1650 | 22700 | 6760 | 9300 | 14600 | 905 | 428 | 172 | 350 | 327 |
| TENKPAAGGAPSPSG | 44400 | 1130 | 4000 | 1450 | 787 | 748 | 255 | 423 | 309 | 198 | 261 |
| ISTPPSGKENKPATG | 19800 | 5330 | 23300 | 588 | 8300 | 13700 | 4380 | 2720 | 189 | 276 | 684 |
| STPPSGTENKPAAGE | 50000 | 47400 | 50400 | 272 | 7130 | 44700 | 8920 | 1040 | 365 | 526 | 517 |
| SSTPPSGTDKKTATG | 39300 | 15700 | 36300 | 6790 | 46000 | 6850 | 601 | 144 | 183 | 1220 | 237 |
| KDNKAATGEAPSQSG | 23800 | 23200 | 35200 | 178 | 9910 | 24000 | 466 | 819 | 189 | 120 | 110 |
| NKAATGGAPSQPGAS | 724 | 1570 | 27000 | 417 | 428 | 1270 | 903 | 1000 | 379 | 244 | 1430 |
| STPPSGTDKKAATGG | 40700 | 14200 | 35800 | 12300 | 32400 | 8210 | 824 | 442 | 196 | 3070 | 371 |
| GKEKKAATGEAPSQS | 16300 | 4030 | 19400 | 6120 | 7420 | 19900 | 244 | 112 | 87.6 | 87.1 | 121 |
| EKKTAAGGAPSQSGA | 318 | 819 | 280 | 5930 | 450 | 786 | 170 | 728 | 196 | 291 | 551 |
| GKDNKAATGEAPSPS | 28800 | 17600 | 31800 | 10000 | 10400 | 27000 | 272 | 298 | 113 | 85.3 | 116 |
